# Some of the results follow.
# B1: Eosinophil cationic protein (ECP) (Homo sapiens), P12724 (protein)
# chain: MVPKLFTSQICLLLLLGLMGVEGSLHARPPQFTRAQWFAIQHISLNPPRCTIAMRAINNYRWRCKNQNTFLRTTFANVVNVCGNQSIRCPHNRTLNNCHRSRFRVPLLHCDLINPGAQNISNCTYADRPGRRFYVVACDNRDPRDSPRYPVVPVHLDTTI
# Columns and labels:
# Experiment in all cases: glycan array binding signal (z-score within array); higher = stronger binding
# Conditions in all cases: glycan notation: IUPAC condensed, linker removed
# [1] = biological target: Fuc(a1-3)[Gal(b1-4)]GlcNAc(b1-2)Man(a1-3)[Fuc(a1-3)[Gal(b1-4)]GlcNAc(b1-2)Man(a1-6)]Man(b1-4)GlcNAc(b1-4)[Fuc(a1-6)]GlcNAc
# In short: (§1)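 Columns mapping to the same glycan were averaged after glycan names were converted to IUPAC-condensed notation. The data come from 3228 arrays in the Consortium for Functional Glycomics database, limited to those with an available protein sequence. Binding is reported as a within-array Z-score averaged across arrays of one protein sequence and across linkers.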
# [2] = biological target: Fuc(a1-3)[Gal(b1-4)]GlcNAc(b1-3)Gal(b1-3)[Fuc(a1-4)]GlcNAc
# In short: as §1
# [3] = biological target: Fuc(a1-3)[Gal(b1-4)]GlcNAc(b1-3)GalNAc
# In short: as §1
# [4] = biological target: Fuc(a1-3)[Gal(b1-4)]GlcNAc(b1-4)Gal(b1-4)[Fuc(a1-3)]GlcNAc
# In short: as §1
# [5] = biological target: Fuc(a1-3)[Gal(b1-4)]GlcNAc(b1-4)Gal(b1-4)[Fuc(a1-3)]GlcNAc(b1-4)Gal(b1-4)[Fuc(a1-3)]GlcNAc
# In short: as §1
# [6] = biological target: Fuc(a1-3)[Gal(b1-4)]GlcNAc(b1-6)GalNAc
# In short: as §1
# [7] = biological target: Fuc(a1-3)[Gal(b1-4)]GlcNAc(b1-6)[Gal(b1-3)GlcNAc(b1-3)]Gal(b1-4)Glc
# In short: as §1
# [8] = biological target: Fuc(a1-3)[Gal(b1-4)]GlcNAc(b1-6)[Neu5Ac(a2-3)Gal(b1-3)]GalNAc
# In short: as §1
# [9] = biological target: Fuc(a1-3)[Gal(b1-4)]GlcNAc6S
# In short: as §1
# [10] = biological target: Fuc(a1-3)[Gal3S(b1-4)]GlcNAc
# In short: as §1
# [11] = biological target: Fuc(a1-3)[Gal3S(b1-4)]GlcNAc6S
# In short: as §1
# [12] = biological target: Fuc(a1-3)[GalNAc(b1-4)]GlcNAc
# In short: as §1
# Fuc(a1-4)GlcNAc = biological target: Fuc(a1-4)GlcNAc
# In short: as §1
# Fuc(b1-3)GlcNAc = biological target: Fuc(b1-3)GlcNAc
# In short: as §1
# Gal(a1-2)Gal = biological target: Gal(a1-2)Gal
# In short: as §1
# Gal(a1-3)Gal = biological target: Gal(a1-3)Gal
# In short: as §1
# Gal(a1-3)Gal(b1-3)GlcNAc = biological target: Gal(a1-3)Gal(b1-3)GlcNAc
# In short: as §1
# [13] = biological target: Gal(a1-3)Gal(b1-3)GlcNAc(b1-2)Man(a1-3)[Gal(a1-3)Gal(b1-3)GlcNAc(b1-2)Man(a1-6)]Man(b1-4)GlcNAc(b1-4)GlcNAc
# In short: as §1
# [14] = biological target: Gal(a1-3)Gal(b1-3)GlcNAc(b1-3)GalNAc
# In short: as §1
# [15] = biological target: Gal(a1-3)Gal(b1-3)[Fuc(a1-4)]GlcNAc(b1-2)Man(a1-3)[Gal(a1-3)Gal(b1-3)[Fuc(a1-4)]GlcNAc(b1-2)Man(a1-6)]Man(b1-4)GlcNAc(b1-4)GlcNAc
# In short: as §1
# Gal(a1-3)Gal(b1-4)Glc = biological target: Gal(a1-3)Gal(b1-4)Glc
# In short: as §1
# Gal(a1-3)Gal(b1-4)GlcNAc = biological target: Gal(a1-3)Gal(b1-4)GlcNAc
# In short: as §1
# [16] = biological target: Gal(a1-3)Gal(b1-4)GlcNAc(b1-3)GalNAc
# In short: as §1
# [17] = biological target: Gal(a1-3)Gal(b1-4)[Fuc(a1-3)]GlcNAc
# In short: as §1
# [18] = biological target: Gal(a1-3)Gal(b1-4)[Fuc(a1-3)]GlcNAc(b1-2)Man(a1-3)[Gal(a1-3)Gal(b1-4)[Fuc(a1-3)]GlcNAc(b1-2)Man(a1-6)]Man(b1-4)GlcNAc(b1-4)GlcNAc
# In short: as §1
# Gal(a1-3)GalNAc = biological target: Gal(a1-3)GalNAc
# In short: as §1
# [19] = biological target: Gal(a1-3)[Gal(a1-4)]Gal(b1-4)GlcNAc
# In short: as §1
# [20] = biological target: Gal(a1-4)Gal(b1-3)GlcNAc(b1-2)Man(a1-3)[Gal(a1-4)Gal(b1-3)GlcNAc(b1-2)Man(a1-6)]Man(b1-4)GlcNAc(b1-4)GlcNAc
# In short: as §1
# Gal(a1-4)Gal(b1-4)Glc = biological target: Gal(a1-4)Gal(b1-4)Glc
# In short: as §1
# Gal(a1-4)Gal(b1-4)GlcNAc = biological target: Gal(a1-4)Gal(b1-4)GlcNAc
# In short: as §1
# [21] = biological target: Gal(a1-4)Gal(b1-4)GlcNAc(b1-2)Man(a1-3)[Gal(a1-4)Gal(b1-4)GlcNAc(b1-2)Man(a1-6)]Man(b1-4)GlcNAc(b1-4)GlcNAc
# In short: as §1
# [22] = biological target: Gal(a1-4)Gal(b1-4)GlcNAc(b1-3)Gal(b1-4)Glc
# In short: as §1
# Gal(a1-4)GlcNAc = biological target: Gal(a1-4)GlcNAc
# In short: as §1
# Gal(a1-6)Glc = biological target: Gal(a1-6)Glc
# In short: as §1
# Gal(b1-2)Gal = biological target: Gal(b1-2)Gal
# In short: as §1
# Gal(b1-3)Gal = biological target: Gal(b1-3)Gal
# In short: as §1
# Gal(b1-3)Gal(b1-4)GlcNAc = biological target: Gal(b1-3)Gal(b1-4)GlcNAc
# In short: as §1
# [23] = biological target: Gal(b1-3)Gal(b1-4)GlcNAc(b1-2)Man(a1-3)[Gal(b1-3)Gal(b1-4)GlcNAc(b1-2)Man(a1-6)]Man(b1-4)GlcNAc(b1-4)GlcNAc
# In short: as §1
# Gal(b1-3)GalNAc = biological target: Gal(b1-3)GalNAc
# In short: as §1
# [24] = biological target: Gal(b1-3)GalNAc(a1-3)[Fuc(a1-2)]Gal(b1-4)Glc
# In short: as §1
# [25] = biological target: Gal(b1-3)GalNAc(a1-3)[Fuc(a1-2)]Gal(b1-4)GlcNAc
# In short: as §1
# [26] = biological target: Gal(b1-3)GalNAc(b1-3)Gal(a1-4)Gal(b1-4)Glc
# In short: as §1
# [27] = biological target: Gal(b1-3)GalNAc(b1-4)Gal(b1-4)Glc
# In short: as §1
# [28] = biological target: Gal(b1-3)GalNAc(b1-4)[Neu5Ac(a2-3)]Gal(b1-4)Glc
# In short: as §1
# Gal(b1-3)GlcNAc = biological target: Gal(b1-3)GlcNAc
# In short: as §1
binder,measurement,setting,value
B1,glycan array binding signal (z-score),[1],-0.227
same,glycan array binding signal (z-score),[2],-0.263
same,glycan array binding signal (z-score),[3],0.621
same,glycan array binding signal (z-score),[4],0.111
same,glycan array binding signal (z-score),[5],-0.066
same,glycan array binding signal (z-score),[6],2.25
same,glycan array binding signal (z-score),[7],-0.352
same,glycan array binding signal (z-score),[8],0.52
same,glycan array binding signal (z-score),[9],0.08
same,glycan array binding signal (z-score),[10],0.329
same,glycan array binding signal (z-score),[11],0.732
same,glycan array binding signal (z-score),[12],-0.183
same,glycan array binding signal (z-score),Fuc(a1-4)GlcNAc,0.072
same,glycan array binding signal (z-score),Fuc(b1-3)GlcNAc,-0.109
same,glycan array binding signal (z-score),Gal(a1-2)Gal,-0.197
same,glycan array binding signal (z-score),Gal(a1-3)Gal,-0.598
same,glycan array binding signal (z-score),Gal(a1-3)Gal(b1-3)GlcNAc,-0.239
same,glycan array binding signal (z-score),[13],1.32
same,glycan array binding signal (z-score),[14],-0.172
same,glycan array binding signal (z-score),[15],-0.345
same,glycan array binding signal (z-score),Gal(a1-3)Gal(b1-4)Glc,-0.116
same,glycan array binding signal (z-score),Gal(a1-3)Gal(b1-4)GlcNAc,0.117
same,glycan array binding signal (z-score),[16],-0.495
same,glycan array binding signal (z-score),[17],-0.346
same,glycan array binding signal (z-score),[18],2.23
same,glycan array binding signal (z-score),Gal(a1-3)GalNAc,-0.078
same,glycan array binding signal (z-score),[19],-0.503
same,glycan array binding signal (z-score),[20],-0.14
same,glycan array binding signal (z-score),Gal(a1-4)Gal(b1-4)Glc,-0.102
same,glycan array binding signal (z-score),Gal(a1-4)Gal(b1-4)GlcNAc,-0.306
same,glycan array binding signal (z-score),[21],0.094
same,glycan array binding signal (z-score),[22],0.055
same,glycan array binding signal (z-score),Gal(a1-4)GlcNAc,-0.254
same,glycan array binding signal (z-score),Gal(a1-6)Glc,0.751
same,glycan array binding signal (z-score),Gal(b1-2)Gal,-0.424
same,glycan array binding signal (z-score),Gal(b1-3)Gal,0.296
same,glycan array binding signal (z-score),Gal(b1-3)Gal(b1-4)GlcNAc,-0.344
same,glycan array binding signal (z-score),[23],-0.135
same,glycan array binding signal (z-score),Gal(b1-3)GalNAc,-0.081
same,glycan array binding signal (z-score),[24],0.07
same,glycan array binding signal (z-score),[25],-0.397
same,glycan array binding signal (z-score),[26],-0.334
same,glycan array binding signal (z-score),[27],-0.077
same,glycan array binding signal (z-score),[28],-0.191
same,glycan array binding signal (z-score),Gal(b1-3)GlcNAc,-0.185
